The whole screen tested about 43,000 compounds, of which about 200 (0.47%) were called active. Inconclusive results (about 12%) are left out. The call rests on the fitted dose curve; in most records, active means well fitted cell-killing curve with a large enough effect; inconclusive means small, poorly fitted or top-dose-only effect, or effect the other way; inactive means flat fitted curve, though single readings scatter. The list shows a part of the results.
On the % scale 0 is the no-effect control and ±100 the full control effect; potency means the concentration at half of the fitted maximal effect.

The experiment can be described thus: Cell viability qHTS assay in S16 Pmp22-F2sN cells. Further: nearly all actives have a fitted effect of over 65% in size. The note with it: S16 Pmp22-F2sN Schwann cells viability, CellTiter-Glo, 24 h; series mostly up to 57.5 µM; activity change, negative = cytotoxicity: at the top concentration. The procedure, abridged:
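S16 Pmp22-F2sN Schwann cells (500-1,000/well) in phenol-red-free DMEM with 10% FBS received 23 nL compound by pin tool for 24 h at 37 °C. Viability was then read as CellTiter-Glo luminescence after 15 min at room temperature.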
On to `Cc1cccc(-c2nc(SCc3ccc(Br)cc3)n3[nH]c(=O)cc3n2)c1`, for which the “activity change, negative = cytotoxicity” value is inactive: -1.7%.
For `Cn1nc(C(=O)Nc2cc(F)ccc2F)c2c1-c1ccccc1SC2`, the “activity change, negative = cytotoxicity” value was inactive: -0.176%.
`CC1CCCCN1c1csc2ccc(F)cc2c1=O` (centres undefined): the “activity change, negative = cytotoxicity” value is inactive: 2.48%.
As for `CSc1nc2sc3c(c2c(=O)n1-c1ccc(C)c(Cl)c1)CCN(C(C)=O)C3`, the “activity change, negative = cytotoxicity” value is inactive: 12.3%.
In the case of `Cn1c(=O)c2c(-c3ccc(Cl)cc3)n(Cc3ccccc3)cc2n(C)c1=O`, the “activity change, negative = cytotoxicity” value was inactive: 1.78%.
Still for that read-out and setting: with `O=C(O)Cn1nnc(-c2ccc(OCc3cccc(C(F)(F)F)c3)cc2)n1` the figure was inactive: 8.93%; with `CCOC(=O)c1[nH]c(C)c(CCC(=O)NCc2ccc(N(C)C)cc2)c1C`, inactive: 7.53%.
Same read-out and setting: then `COc1ccc(Cn2c(CCC(=O)NCc3cccc(Cl)c3)nc3cccnc32)cc1`, with inactive: -15.6%; and `COc1cccc(/C=C/c2nc(C#N)c(NCCN(C)C)o2)c1`, with inactive: 5.15%; and `COc1cccc(NC(=O)C2CCC(CNS(=O)(=O)c3ccc4c(c3)CC(C)N4C(C)=O)CC2)c1` (centres undefined), with inactive: -23.6%.
On the same count and under the same terms, then `CCOC(=O)c1cc(S(=O)(=O)Nc2ccc(C)cc2Cl)[nH]n1`, with inactive: 0.0911%.
As to `O=C(CSc1nccn1Cc1ccco1)Nc1ccc(F)cc1`, the “activity change, negative = cytotoxicity” value is inactive: 14.8%.
As to `COc1ccc(CNC(=O)CSc2nc3ccccc3nc2Cc2ccccc2)cc1`, the “activity change, negative = cytotoxicity” value was inactive: 11.2%.
Same read-out and setting: with `CN(C(=O)CSc1nc2ccc(NC(=O)COc3ccc(Cl)cc3)cc2s1)c1ccccc1` the figure was inactive: -7.06%; with `CCCOc1cccc(NC(=O)c2c(-c3ccccc3Cl)noc2C)c1`, inactive: 0.93%; with `O=S(=O)(Nc1ccccc1C(F)(F)F)c1ccc(N2CCCCS2(=O)=O)cc1`, inactive: 7.6%.
In the case of `COc1ccc(OC)c(NC(=O)Cn2cnc3ccc(S(=O)(=O)N4CCC(C)CC4)cc3c2=O)c1`, the “activity change, negative = cytotoxicity” value was inactive: 1.08%.
Still for that read-out and setting: with `CN(Cc1ccccc1)C(=O)c1ccc2c(c1)N(Cc1ccccc1F)C(=O)c1ccccc1S2(=O)=O` the figure was inactive: 1.22%; with `O=C(Nc1cc(-c2nc3ccccc3s2)ccc1Cl)c1cc2ccccc2o1`, inactive: 9.15%.
On the same count and under the same terms, with `Cc1cc(C)c2oc(C(=O)Nc3ccc(S(=O)(=O)N4CCCCC4)cc3)cc(=O)c2c1` the figure was inactive: 6.68%; with `Cc1ccc(Cl)cc1-n1c(=O)cc(N2CCN(c3ccc(F)cc3)CC2)[nH]c1=O`, inactive: -6.91%; with `Cc1ccc(-c2nc3sc(CCNS(=O)(=O)c4cc(F)ccc4F)c(C)n3n2)cc1`, inactive: -24%.
For `CC(=O)N(Cc1cccnc1)c1nc2c(F)cc(F)cc2s1`, the “activity change, negative = cytotoxicity” value is inactive: -0.448%.
On to `COc1ccc(Cl)cc1NS(=O)(=O)c1ccc2[nH]c3c(c2c1)CCCC3`, for which the “activity change, negative = cytotoxicity” value was inactive: -12%.
Take `Cc1ccc2c(CN3CCN(C(=O)c4ccc(F)cc4)CC3)cc(=O)oc2c1`: the “activity change, negative = cytotoxicity” value was inactive: 14.3%.
As to `Cc1ccc(OCC(=O)N(c2ccc(C)cc2)S(=O)(=O)c2ccc(Cl)cc2)cc1`, the “activity change, negative = cytotoxicity” value is inactive: 2.91%.
As to `Cn1c(=O)n(C)c2cc(NS(=O)(=O)c3ccc(F)cc3)ccc21`, the “activity change, negative = cytotoxicity” value was inactive: 4.3%.
Still for that read-out and setting: with `COc1cccc(C(=O)Nc2ccc3nc(SCC(=O)N4CCOCC4)sc3c2)c1` the figure was inactive: 2.01%; with `COc1cc2nc(NCCC(C)C)n3nc(-c4ccccc4)nc3c2cc1OC`, inactive: 1.97%.
`CCCCS(=O)(=O)c1oc(-c2cccs2)nc1S(=O)(=O)c1ccccc1`: the Potency was active: 2510 nM.
On to `Cc1cc(C)n2c(Nc3ccc(Cl)cc3)c(-c3ccsc3)nc2n1`, for which the “activity change, negative = cytotoxicity” value is inactive: 9.99%.
The same measure, in the same setting: with `COc1ccccc1CNC(=O)CN1C(=O)COc2ccc(S(=O)(=O)Nc3ccccc3)cc21` the figure was inactive: 0.417%.
On the same count and under the same terms, then `CC(C)(C)c1ccc(C(=O)NCCc2csc3nc(-c4ccccc4F)nn23)cc1`, with inactive: 12.4%.
For the compound `CSCCC(NS(=O)(=O)c1ccc2c(c1)oc(=O)n2C)C(=O)N1CCN(c2cc(C)ccc2C)CC1` (centres undefined), the “activity change, negative = cytotoxicity” value is inactive: -11%.
Regarding `COc1ccc(C2CC(=O)NC(NC(=O)c3ccc(Br)cc3)=N2)c(OC)c1OC` (centres undefined), the “activity change, negative = cytotoxicity” value was inactive: 8.79%.
Same read-out and setting: then `CCOc1ccccc1NC(=O)CSc1nc(=O)[nH]c2c1CCCC2`, with inactive: -4.65%; and `O=C(CS(=O)(=O)c1cccc2nsnc12)Nc1ccccc1`, with inactive: 16.2%.
The same measure, in the same setting: then `CC(=O)N1CCOc2cc(S(=O)(=O)NCc3ccc(C)cc3)c(Cl)cc21`, with inactive: -1.37%.
For the compound `COc1ccc(C2(Nc3cccc(C(=O)O)c3C)C(=O)c3ccccc3C2=O)cc1`, the “activity change, negative = cytotoxicity” value is inactive: 8.44%.
Still for that read-out and setting: with `O=C(/C=C\c1ccc2c(c1)OCO2)NC1CC(=O)N(c2ccc(Cl)cc2)C1` (centres undefined) the figure was inactive: 0.449%; with `COc1ccc(-c2csc3nc(-c4ccccc4C)oc(=O)c23)cc1OC`, inactive: 22.7%.
On the same count and under the same terms, with `Cc1ccc(NC(=O)C2CCN(S(=O)(=O)c3c(C)noc3C)CC2)c(C)c1` the figure was inactive: 14.3%; with `CCOC(=O)c1c(C)oc2ncnc(N3CCN(c4ccccc4F)CC3)c12`, inactive: -26.8%.
The same measure, in the same setting: then `O=C(Cc1cccs1)NC1CC(=O)N(c2cccc(F)c2)C1` (centres undefined), with inactive: 7.74%.
For the compound `CCOc1ccccc1NC(=O)c1cc(=O)c2ccc(C)cc2o1`, the “activity change, negative = cytotoxicity” value was inactive: 18.7%.
For `COc1ccc(NC(=O)CSc2oc(-c3cccs3)nc2S(=O)(=O)c2ccc(C)cc2)c(OC)c1`, the “activity change, negative = cytotoxicity” value was inactive: 7.22%.
Same read-out and setting: then `CCSc1nc(-c2ccccc2OC)nc2c1Cc1c(CO)cnc(C)c1O2`, with inactive: -7.59%.
With `O=C(Nc1cc2c(cc1C(=O)c1ccccc1)OCCO2)c1ccc(Br)cc1`, the “activity change, negative = cytotoxicity” value was inactive: -7.91%.
In the case of `CN(C)CCN(Cc1ccccc1)S(=O)(=O)c1ccc2[nH]c(=O)ccc2c1`, the “activity change, negative = cytotoxicity” value is inactive: 16.6%.

The record behind these values is PubChem BioAssay AID1508642 (National Center for Advancing Translational Sciences (NCATS), 2021).
